# Measurements as given in article PMC4336329 (PLoS ONE, 2015).
# Hit rate of the full screen: of about 310,000 compounds, about 14,000 (4.5%) showed an effect of 50% or more. The effect is printed as a negative number. This is one part of the list.
# Biological target: human ether-à-go-go-related gene (hERG) potassium channel (human, UniProt Q12809)
# Assay: primary screen, population patch clamp on CHO cells stably expressing hERG
# 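Also: peak tail current of the secondary pulse compared with the same well before compound.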
# human ether-à-go-go-related gene (hERG) potassium channel, sequence (Q12809 whole entry, looked up): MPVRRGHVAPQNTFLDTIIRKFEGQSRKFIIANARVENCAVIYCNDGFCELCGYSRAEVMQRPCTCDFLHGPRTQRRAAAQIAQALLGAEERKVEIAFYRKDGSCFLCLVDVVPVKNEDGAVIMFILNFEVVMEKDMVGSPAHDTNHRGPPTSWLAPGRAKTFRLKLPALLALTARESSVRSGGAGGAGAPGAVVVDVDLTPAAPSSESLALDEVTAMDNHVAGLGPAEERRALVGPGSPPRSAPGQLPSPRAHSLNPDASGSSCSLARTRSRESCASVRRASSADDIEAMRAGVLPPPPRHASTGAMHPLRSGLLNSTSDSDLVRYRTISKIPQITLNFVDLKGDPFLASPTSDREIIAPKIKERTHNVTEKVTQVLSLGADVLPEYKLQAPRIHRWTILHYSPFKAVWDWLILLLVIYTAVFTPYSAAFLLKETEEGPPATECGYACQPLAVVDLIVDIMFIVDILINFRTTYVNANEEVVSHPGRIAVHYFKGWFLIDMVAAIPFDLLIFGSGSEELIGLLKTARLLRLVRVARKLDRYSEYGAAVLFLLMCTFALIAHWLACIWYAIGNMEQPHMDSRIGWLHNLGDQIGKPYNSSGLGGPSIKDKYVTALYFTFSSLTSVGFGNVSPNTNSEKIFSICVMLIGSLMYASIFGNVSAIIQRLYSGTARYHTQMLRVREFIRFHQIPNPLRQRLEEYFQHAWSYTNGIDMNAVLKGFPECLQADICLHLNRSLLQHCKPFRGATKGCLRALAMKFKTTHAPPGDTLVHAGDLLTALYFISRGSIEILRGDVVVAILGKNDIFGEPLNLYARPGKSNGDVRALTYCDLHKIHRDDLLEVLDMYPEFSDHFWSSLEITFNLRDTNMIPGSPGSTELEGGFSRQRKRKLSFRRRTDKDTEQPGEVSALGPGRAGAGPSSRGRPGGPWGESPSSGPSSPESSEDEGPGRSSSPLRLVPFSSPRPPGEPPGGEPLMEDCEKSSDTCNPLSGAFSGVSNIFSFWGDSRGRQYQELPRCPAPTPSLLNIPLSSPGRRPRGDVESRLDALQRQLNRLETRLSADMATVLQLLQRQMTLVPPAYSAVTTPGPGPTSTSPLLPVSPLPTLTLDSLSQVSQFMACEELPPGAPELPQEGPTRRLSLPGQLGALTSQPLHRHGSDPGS
row,Structure (SMILES),"hERG current change (%, negative = inhibition) at 10uM [%]"
1,CCOC(=O)N1CCN(C(=O)CN(c2ccc(C)cc2)S(=O)(=O)c2c(C)noc2C)CC1,-23.8
2,Cc1cc([N+](=O)[O-])ccc1NC(=O)CCC(=O)N1CCCC1,-1.81
3,CC(=O)c1c(COC(=O)c2ccco2)nc2ccccc2[n+]1[O-],-8.88
4,Cc1ccsc1C(=O)OCC(=O)NCCNC(=O)COC(=O)c1sccc1C,15.7
5,COC(=O)c1sccc1NC(=O)Nc1cccc(C)c1,-20.5
6,COc1ccc(CCNC(=S)Nc2ccccc2)cc1,-3.62
7,CCOc1ccccc1CNC(=O)C1CCN(c2nnc(C)c3c(C)n(-c4ccc(C)cc4)nc23)CC1,-36.4
8,C=C(C)Cn1c(CCCNC(=O)C(C)(C)C)nc2ccccc21,-18
9,CN(C)S(=O)(=O)c1cccc(NC(=O)c2cc([N+](=O)[O-])ccc2N2CCCCC2)c1,-53
10,CC(C)(C)NNC(=S)Nc1cccc(C(F)(F)F)c1,12
11,CCCn1c(SCC(=O)NCc2ccc(F)cc2)n[nH]c1=O,10
12,COc1ccc(CC(=O)NNC(=O)c2cc(C)oc2C)cc1OC,-0.228
13,O=C(COc1ncnc2sccc12)Nc1cccc(S(=O)(=O)N2CCCC2)c1,-11.2
14,COc1ccc(NS(=O)(=O)c2cccc(C(=O)N3CCCC(C)C3)c2)cc1 (stereo not drawn),-18.7
15,O=S(=O)(c1ccccc1)N1CCC(O)(CN2CCN(c3ccccc3)CC2)CC1,12.2
16,Cc1nn(C(=O)/C(C#N)=C/N(C)C)c(C)c1C,41.7
17,CCNc1nnc(CSc2nc3ccccc3s2)s1,-20.4
18,Cc1ccc(OCC(=O)Nc2ccncc2)c(C)c1,-4.52
19,O=C(N/N=C/c1ccc(OC(=O)c2ccccc2)cc1)c1cccnc1,21.1
20,CCNc1nc(NCC)n2c(SCC(=O)Nc3ccc(C(F)(F)F)cc3[N+](=O)[O-])nnc2n1,0.556
21,O=C(COC(=O)c1cc(Cl)ccc1O)NNC(=O)c1ccc([N+](=O)[O-])cc1,-8.83
22,N#CCCn1nc(-c2ccccc2)cc1Nc1ccccc1NC(=O)c1cccs1,-13

row,Structure (SMILES),"hERG current change (%, negative = inhibition) at 10uM [%]"
1,CCOC(=O)c1cccc(NC(=O)c2ccccc2C)c1,0.56
2,Fc1ccc(-c2nn(-c3ccccc3)cc2CNCc2ccccc2)cc1,1.75
3,N/C(COc1ccc(Cl)cc1Cl)=N\NS(=O)(=O)c1ccccc1,-12.5
4,Cc1ccc(S(=O)(=O)N2CCCOC2CNC(=O)C(=O)NCc2cccnc2)cc1 (stereo not drawn),13.5
5,Cn1cc(-c2nnnn2-c2ccc(Cl)cc2)c(=O)c2ccccc21,-69.3
6,O=C1NC(=Nc2ccccc2)S/C1=C\C=C\c1ccco1,4.21
7,O=C(O)CC1S/C(=N\N=C2CCCCCC2)N(c2ccccc2)C1=O (stereo not drawn),9.08
8,COc1ccc(/C=N/Nc2nc3ccccc3c(=O)n2-c2ccccc2)cc1OC,-4.81
9,C(=C\c1ccco1)/C1=NN(c2ccccc2)C(c2ccco2)C1 (stereo not drawn),10.7
10,COc1cc(NC(=O)c2ccccc2-n2cnnn2)cc(OC)c1,5.93
11,CCOC(=O)c1cc(S(=O)(=O)N2CCCC2)cn1C,11
12,Nc1cccc2c1C(=O)N(Cc1cccc(Cl)c1)C2=O,0.677
13,COC(=O)c1cccc(Oc2nc3c(c(=O)n(C)c(=O)n3C)n2Cc2ccc(C)cc2)c1,-9.94
14,COc1ccc(CCC(=O)Nc2ccc(C(=O)c3ccncc3)cc2)cc1,3.21
15,COc1ccc(-c2cc3nc(CCl)[nH]c(=O)c3s2)cc1,18.1
16,COc1ccc(N2C(=O)CC(c3cc(OC)c(OC)c(OC)c3)CC2=O)cc1,12.4
17,COc1ccc(CN2CCN(Cc3ccc(C)cc3)C(CCO)C2)cc1OC (stereo not drawn),-54.3
18,CCOC(=O)c1[nH]c(C)c(C(=O)OCC(=O)NCc2ccc(OC)cc2)c1C,8.13
19,COC(=O)c1ccc(C)c(NC(=S)NCc2ccc(Cl)cc2)c1,5.57
20,O=C(CSc1ccc(-c2ccc(Cl)cc2)nn1)NC1CCCC1,10.2
21,O=C(Nc1ncc([N+](=O)[O-])s1)c1ccccc1Br,8.12
22,O=c1oc2c(CN3CCOCC3)c(O)c(Cl)cc2c2c1CCCC2,6.08

row,Structure (SMILES),"hERG current change (%, negative = inhibition) at 10uM [%]"
1,CC/C(=N\NC(=O)c1nnn(-c2nonc2N)c1-c1ccc2c(c1)OCO2)c1ccccc1,17.9
2,COc1ccccc1[C@@H]1C(c2cccc(Cl)c2)=NN(c2ccccc2)[C@H]1C(=O)N1CCOC1=O,15.2
3,CNc1ccc(C2(O)C(=O)c3ccccc3C2=O)cc1,-66.1
4,CC1(C)CC(=O)C(C(O)c2ccccc2)C(C)(C)N1 (stereo not drawn),13.5
5,COc1ccc(-c2[nH]ncc2CNC(C)CCn2cccn2)cc1F (stereo not drawn),-2.23
6,COc1cccc(CNC(=O)CN(C)S(=O)(=O)c2ccc3c(c2)n(C)c(=O)c(=O)n3C)c1,10.3
7,Cc1nn2c(C(F)(F)F)cc(-c3ccc(Cl)cc3)nc2c1C(=O)N1CCOCC1,-13.6
8,CN(CC(=O)Nc1cccc(F)c1)C(=O)CN1C(=O)C2CCCCC2C1=O (stereo not drawn),-0.73
9,Cc1ccc(CNC(=O)Nc2ccc(F)cc2)n1C,9.32
10,CC(C)c1ccc2c(c1)C1Cc3ccccc3C1N2.O=C(O)C(F)(F)F (stereo not drawn),4.21
11,c1ccc(Cn2c(NCc3ccco3)nc3ccccc32)cc1,-51
12,COCCn1nnnc1CN(Cc1cc2cc(OC)c(OC)cc2[nH]c1=O)C1CCCC1,1.74
13,COc1ccc(NC(=O)CN(C)S(=O)(=O)c2cccc3cccnc23)cc1,-15.5
14,NC(=O)CSc1nc2ccccc2c(=O)n1-c1ccccc1,20.1
15,CCC1CCCCN1C(=O)c1ccc2nc(Cc3ccc(OC)cc3)oc2c1 (stereo not drawn),-11.7
16,CCN(CC(=O)Nc1ccc(S(N)(=O)=O)cc1)S(=O)(=O)c1cc(C)ccc1OC,3.91
17,Cc1ccccc1NC(=O)C1CC(Cl)=CCC1C(=O)O (stereo not drawn),-11.3
18,CN(CC(=O)Nc1ccccc1Cl)C(=O)CSc1nc2ccccc2s1,-1.96
19,FC(F)(F)c1ccc(C2NCCc3sccc32)cc1 (stereo not drawn),-10.1
20,Cc1ccnc(NC(c2ccccc2O)c2oc(CO)cc(=O)c2O)c1 (stereo not drawn),3.92
21,COc1ccc(-c2nc3cc(C)ccn3c2NCC2CCCO2)cc1OC.Cl (stereo not drawn),-71.2
22,CC(=O)N1CCCc2cc(S(=O)(=O)N3CCCC3)ccc21,15.3

row,Structure (SMILES),"hERG current change (%, negative = inhibition) at 10uM [%]"
1,C=CCN=C(NC#N)SCC(=O)c1cccc(OC)c1,-1.17
2,Cc1c(NC(=O)c2cnc(Cl)c(Cl)c2)c(=O)n(-c2ccccc2)n1C,2.95
3,Cc1ccc(S(=O)(=O)N2CCCCC2CCNC(=O)C(=O)Nc2ccccc2F)cc1 (stereo not drawn),2.2
4,COc1ccc(-c2nc(CN3CCC(C(=O)N4CCOCC4)CC3)c(C)o2)cc1OC,-6.54
5,CCC(C)c1ccccc1NC(=O)COC(=O)CCc1cc(OC)c(OC)c(OC)c1 (stereo not drawn),2.71
6,COc1cc2cc(CN(CCc3ccccc3C)C(=S)NCCCN3CCOCC3)c(=O)[nH]c2cc1OC,-38.4
7,COc1cc(F)ccc1CN1CCC(n2nccc2NC(=O)C2CCOC2)CC1 (stereo not drawn),-14.5
8,COc1cccc(OC)c1/C=C/C(=O)NC1CCCCC1,12.5
9,O=C(CNc1ccccc1OC(F)F)N1CCc2ccccc21,21.9
10,Cc1cc(=O)oc2cc(OCC(=O)Nc3nnc(CC(C)C)s3)ccc12,-2.86
11,COc1ccc(CCn2nnnc2CN2CCN(C(=O)c3ccco3)CC2)cc1OC,-35
12,O=C(NN1C(=O)/C(=C/c2cccnc2)SC1=S)C(c1ccccc1)c1ccccc1,-5.67
13,CC(=O)c1cccc(NC(=O)c2cc(-c3ccc(C)cc3)on2)c1,17.3
14,CC(NC(=O)c1ccc(CS(C)(=O)=O)cc1)c1ccc(-c2ccccc2)cc1 (stereo not drawn),15.4
15,COc1ccc2nc(-c3ccccn3)[nH]c2c1,6.8
16,COCC(C)NC(=O)c1ccc(Cl)c(Cl)c1 (stereo not drawn),13.5
17,Cc1ccc(OCC(=O)Nc2c3c(nn2C(C)(C)C)CS(=O)(=O)C3)cc1,-41.4
18,CNC(=O)CSc1nnc(-c2ccccc2F)n1CCc1ccccc1,-26.7
19,Cc1cccc2cc(C3CC(c4ccco4)=NN3C(=O)CCC(=O)O)c(Cl)nc12 (stereo not drawn),9.26
20,COc1ccc(N2CCN(C(CNC(=O)C3CCCCC3)c3cccnc3)CC2)cc1 (stereo not drawn),0.00358
21,COc1ccc(NC(=O)c2cc(S(=O)(=O)N(Cc3ccccc3)c3ccccc3)ccc2Cl)cn1,-4.28
